Out of some 310,000 compounds screened, about 2,200 (0.71%) showed an effect of 50% or more. The effect is printed as a negative number. This is one part of the list.
target: human ether-à-go-go-related gene (hERG) potassium channel (human, UniProt Q12809); test: primary screen, population patch clamp on CHO cells stably expressing hERG
Sequence (Q12809 whole entry, looked up): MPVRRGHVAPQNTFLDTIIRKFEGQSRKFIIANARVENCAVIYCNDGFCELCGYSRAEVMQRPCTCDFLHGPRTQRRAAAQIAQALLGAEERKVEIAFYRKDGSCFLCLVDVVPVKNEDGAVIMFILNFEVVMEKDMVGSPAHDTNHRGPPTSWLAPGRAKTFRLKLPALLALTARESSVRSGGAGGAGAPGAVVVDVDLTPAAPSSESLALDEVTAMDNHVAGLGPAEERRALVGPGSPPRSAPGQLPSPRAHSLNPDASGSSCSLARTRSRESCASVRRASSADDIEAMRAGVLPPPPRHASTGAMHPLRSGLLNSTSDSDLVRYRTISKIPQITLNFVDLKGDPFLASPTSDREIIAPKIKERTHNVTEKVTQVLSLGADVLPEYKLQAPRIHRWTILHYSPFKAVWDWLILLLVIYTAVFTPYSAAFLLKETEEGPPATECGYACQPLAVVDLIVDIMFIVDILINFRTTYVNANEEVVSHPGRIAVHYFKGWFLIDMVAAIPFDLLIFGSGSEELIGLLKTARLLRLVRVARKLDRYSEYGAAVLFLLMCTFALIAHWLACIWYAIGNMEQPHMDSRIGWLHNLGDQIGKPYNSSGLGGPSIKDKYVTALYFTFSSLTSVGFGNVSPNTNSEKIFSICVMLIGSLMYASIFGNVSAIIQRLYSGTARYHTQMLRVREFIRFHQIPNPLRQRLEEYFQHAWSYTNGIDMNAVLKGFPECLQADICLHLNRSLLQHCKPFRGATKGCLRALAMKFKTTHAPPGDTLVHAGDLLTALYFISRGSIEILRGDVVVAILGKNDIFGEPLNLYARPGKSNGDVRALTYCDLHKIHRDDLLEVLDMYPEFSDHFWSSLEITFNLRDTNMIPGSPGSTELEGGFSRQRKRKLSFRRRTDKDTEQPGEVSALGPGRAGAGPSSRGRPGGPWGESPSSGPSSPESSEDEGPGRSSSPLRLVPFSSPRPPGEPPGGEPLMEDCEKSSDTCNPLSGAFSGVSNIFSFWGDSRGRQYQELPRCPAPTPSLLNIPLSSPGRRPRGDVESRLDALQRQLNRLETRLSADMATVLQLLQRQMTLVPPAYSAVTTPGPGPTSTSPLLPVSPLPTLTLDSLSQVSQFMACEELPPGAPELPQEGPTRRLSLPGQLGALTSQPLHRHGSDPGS

Compared with `CCCCn1c(NCc2ccncc2)nc2ccccc21`, `CCCNc1nc2c(c(=O)[nH]c(=O)n2C)n1CCc1ccccc1` is higher in “hERG current change (%, negative = inhibition) at 1uM” value: -10.1% for the first, 9.41% for the second.

Compared with `O=C(NCC1CCCO1)/C(=C\c1ccco1)NC(=O)c1ccccc1` (centres unmarked), `CN(c1ccccc1)C(c1ccc(F)cc1)c1nnnn1CC1CCCO1.Cl` (centres unmarked) is lower in “hERG current change (%, negative = inhibition) at 1uM” value: 14.9% for the first, 2.88% for the second.

First: O=c1ccc(-c2ccccc2)nn1Cc1ccc(F)cc1Cl
Second: COC(=O)c1sccc1NC(=O)c1c(C)c(-c2cccc(Cl)c2)nc2ccccc12
The “hERG current change (%, negative = inhibition) at 1uM” value of the first is lower: 18.8% for the first, 19.3% for the second.

Compared with `CC(C)Cn1c(N)c(C(=O)COC(=O)COc2cccc(C(F)(F)F)c2)c(=O)n(C)c1=O`, `CCOC(=O)C1(Cc2ccccc2C(F)(F)F)CCN(C(=O)c2cc(C)n(C)n2)CC1` is higher in “hERG current change (%, negative = inhibition) at 1uM” value: -16.5% for the first, 1.96% for the second.

Going from `C=CCN(C(=O)CCC(=O)Nc1cc(C)on1)C(C(=O)NC1CCCC1)c1ccc(OC)cc1OC` (centres unmarked) to `COc1cccc(-c2noc(CCCC(=O)NC3CCCC3)n2)c1`, the “hERG current change (%, negative = inhibition) at 1uM” value rises from 8.9% to 11.6%.

Compared with `CC(C(=O)N1CCc2ccccc21)N1CCc2ccccc2C1` (centres unmarked), `Cl.O=C(CN1CCC(O)CC1)N1c2ccccc2C=Cc2ccccc21` is higher in “hERG current change (%, negative = inhibition) at 1uM” value: -4.76% for the first, 0.486% for the second.

Going from `CCS(=O)(=O)c1ccc2c(c1)NC(=O)C(CCCl)O2` (centres unmarked) to `Cc1ccc(C)c(S(=O)(=O)N2C(=S)NC(=O)C2C(C)C)c1` (centres unmarked), the “hERG current change (%, negative = inhibition) at 1uM” value rises from -0.698% to 6.07%.

Compared with `CN1CCN(c2ccc([N+](=O)[O-])c(N3CCCCC3)c2)CC1`, `O=C(CCN1CCCCC1)NCC1OCCc2ccccc21` (centres unmarked) is lower in “hERG current change (%, negative = inhibition) at 1uM” value: 8.79% for the first, -26.7% for the second.

Compared with `Cc1ccc(S(=O)(=O)N(C)C)cc1NC(=O)CSc1nc2ccccc2[nH]1`, `COc1ccccc1N(CC(=O)Nc1ccc2c(c1)OCCO2)S(=O)(=O)c1ccc(C)cc1` is higher in “hERG current change (%, negative = inhibition) at 1uM” value: -8.95% for the first, 13.8% for the second.

Going from `CS(=O)(=O)N(CC(=O)NCCc1ccccc1)c1cccc([N+](=O)[O-])c1` to `O=C(CN1CCN(Cc2ccccc2)CC1)NCCNc1ccc([N+](=O)[O-])cn1`, the “hERG current change (%, negative = inhibition) at 1uM” value falls from 3.83% to -5.73%.

Going from `COC/C=C/C1=CC2=CC(=O)C(C)(OC(=O)c3cnc4ccccc4n3)C(=O)C2=CN1CCc1ccccn1` (centres unmarked) to `COc1ccc(-n2c(-c3ccc(C)cc3)nc3ccccc3c2=O)cc1`, the “hERG current change (%, negative = inhibition) at 1uM” value falls from 14.7% to 0.946%.

First: O=C(Nc1ccon1)C12CC3CC(C1)CC(n1cnc([N+](=O)[O-])n1)(C3)C2
Second: O=C(O)CC(NC(=O)CCC1CCCCC1)c1cc([N+](=O)[O-])ccc1Cl (centres unmarked)
The “hERG current change (%, negative = inhibition) at 1uM” value of the first is lower: -4.03% for the first, 12.9% for the second.

Going from `C[C@H](NC(=O)C1CC(=O)N(c2ccc3c(c2)OCCO3)C1)C(=O)NC1CCCC1` (some centres unmarked) to `O=C(Nc1ccc2c(c1)OCO2)C1CCN(S(=O)(=O)c2cccc3cccnc23)CC1`, the “hERG current change (%, negative = inhibition) at 1uM” value rises from 9.62% to 14.2%.

Compared with `COc1ccc(CNC(=O)c2onc(C)c2Cl)cc1`, `COc1ccc(/C=N/Nc2nncc3ccccc23)c(OC)c1` is higher in “hERG current change (%, negative = inhibition) at 1uM” value: 7.13% for the first, 16.2% for the second.

Compared with `O=c1[nH]c(-[n+]2ccccc2)c(/C=N/NC([S-])=Nc2ccccc2)s1`, `S=C(NC1CCCCC1)N(CCc1ccccc1)CCc1ccccc1` is lower in “hERG current change (%, negative = inhibition) at 1uM” value: 25.5% for the first, 2.69% for the second.

First: COc1ccc(OC)c(C2CC(=O)Nc3n[nH]c(-c4ccccc4)c32)c1 (centres unmarked)
Second: CN1CCN(CC(=O)N(C)c2nc(-c3ccccc3)cs2)CC1
The “hERG current change (%, negative = inhibition) at 1uM” value of the first is higher: 6.67% for the first, 2.44% for the second.

First: COc1cc(CN2CCNC(=O)C2CC(=O)NCCc2ncccc2C)cc(OC)c1 (centres unmarked)
Second: CCc1cccc(C)c1NC(=O)C1CCCO1 (centres unmarked)
The “hERG current change (%, negative = inhibition) at 1uM” value of the first is higher: 15% for the first, 8.08% for the second.

First: O=C(NCC1(N2CCOCC2)CCCCC1)c1ccc(Cl)c(S(=O)(=O)NCc2ccco2)c1
Second: CC(=O)c1ccc(N2CCN(C(=O)/C=C/c3ccc(S(=O)(=O)NCc4ccco4)cc3)CC2)cc1
The “hERG current change (%, negative = inhibition) at 1uM” value of the first is lower: -23.1% for the first, -10.1% for the second.

Going from `CCOc1cc(C(=O)N/N=C\c2cn(CC)nc2C)cc(OCC)c1OCC` to `CCOc1cc2c(cc1OCC)-n1cccc1C(c1cccc(F)c1)NC2.Cl` (centres unmarked), the “hERG current change (%, negative = inhibition) at 1uM” value falls from 12.2% to 8.25%.

Compared with `Cc1cc(C)c2nc(-c3ccccn3)cc(C(=O)Nc3ccc(S(=O)(=O)Nc4onc(C)c4C)cc3)c2c1`, `O=C(NC(=S)Nc1ccc2oc(-c3cccnc3)nc2c1)c1cccc(Cl)c1` is lower in “hERG current change (%, negative = inhibition) at 1uM” value: 8.17% for the first, 0.287% for the second.

Going from `Cc1ccc(S(=O)(=O)N2CCN(C(=O)CCC(=O)NC3CCCc4ccccc43)CC2)cc1` (centres unmarked) to `O=C(CCN1CCN(C/C=C/c2ccccc2)CC1)Nc1ccccc1F.O=C(O)C(=O)O`, the “hERG current change (%, negative = inhibition) at 1uM” value falls from 12.5% to -81.2%.

Compared with `COCCCNC(=O)C1CCC(CNS(=O)(=O)c2ccc3c(c2)CC(C)N3C(=O)C2CC2)CC1` (centres unmarked), `O=C(CNC(=O)c1ccccc1F)NCCOc1ccccc1Cl` is higher in “hERG current change (%, negative = inhibition) at 1uM” value: 1.05% for the first, 15.9% for the second.

Compared with `Cn1c(=O)c2c(nc(NCc3cccnc3)n2Cc2ccc(Cl)cc2)n(C)c1=O`, `Fc1cccc(NC(=S)N2CCn3cccc3C2c2cccnc2)c1` (centres unmarked) is higher in “hERG current change (%, negative = inhibition) at 1uM” value: 3.92% for the first, 4.28% for the second.

First: Cc1ccc(CN2CCN(Cc3cnc(N4CCOCC4)s3)CC2CCO)cc1 (centres unmarked)
Second: CCCCn1c(N)c(N2CCOCC2)c(=O)n(CC(=O)NC(C)c2ccccc2)c1=O (centres unmarked)
The “hERG current change (%, negative = inhibition) at 1uM” value of the first is lower: -14.3% for the first, 10.6% for the second.

Going from `Cc1ccc(NC(=O)Nc2ccccc2C#N)c(Cl)c1` to `CC1=C(C(N)=O)C(c2cccs2)n2nc(-c3cccc(C)c3)nc2N1` (centres unmarked), the “hERG current change (%, negative = inhibition) at 1uM” value falls from 10.7% to -9.92%.

First: CN1C(C(=O)Nc2ccc(F)cc2F)=CC(c2ccco2)=NS1(=O)=O
Second: CCOC(=O)c1sc(-c2cccc([N+](=O)[O-])c2)cc1N
The “hERG current change (%, negative = inhibition) at 1uM” value of the first is lower: -9.69% for the first, 17% for the second.

`CNC(=S)Nc1sc2c(c1C(=O)OC)CCC2` was tested, and the “hERG current change (%, negative = inhibition) at 1uM” value was 11.1%.

From article PMC4336329 (PLoS ONE, 2015)
